Assay results taken from the supplement of paper PMC8728848.
This is one part of the list.

How the values were obtained:
Test in all cases: glycan array binding signal (z-score within array); higher = stronger binding
Settings in all cases: glycan notation: IUPAC condensed, linker removed
[1] = molecular target: Fuc(a1-2)Gal(b1-4)[Fuc(a1-3)]GlcNAc(b1-2)Man(a1-3)[Fuc(a1-2)Gal(b1-4)[Fuc(a1-3)]GlcNAc(b1-2)Man(a1-6)]Man(b1-4)GlcNAc(b1-4)[Fuc(a1-6)]GlcNAc
Procedure, shortened: (§1)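 Columns mapping to the same glycan were averaged after glycan names were converted to IUPAC-condensed notation. The data come from 3228 arrays in the Consortium for Functional Glycomics database, limited to those with an available protein sequence. Binding is reported as a within-array Z-score averaged across arrays of one protein sequence and across linkers.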

[2] = molecular target: Fuc(a1-2)Gal(b1-4)[Fuc(a1-3)]GlcNAc(b1-2)[Fuc(a1-2)Gal(b1-4)[Fuc(a1-3)]GlcNAc(b1-4)]Man(a1-3)[Fuc(a1-2)Gal(b1-4)[Fuc(a1-3)]GlcNAc(b1-2)Man(a1-6)]Man(b1-4)GlcNAc(b1-4)GlcNAc
Procedure, shortened: as §1

[3] = molecular target: Fuc(a1-2)Gal(b1-4)[Fuc(a1-3)]GlcNAc(b1-3)Gal(b1-4)[Fuc(a1-3)]GlcNAc
Procedure, shortened: as §1

[4] = molecular target: Fuc(a1-2)Gal(b1-4)[Fuc(a1-3)]GlcNAc(b1-3)Gal(b1-4)[Fuc(a1-3)]GlcNAc(b1-3)Gal(b1-4)[Fuc(a1-3)]GlcNAc
Procedure, shortened: as §1

[5] = molecular target: Fuc(a1-2)Gal(b1-4)[Fuc(a1-3)]GlcNAc(b1-3)GalNAc
Procedure, shortened: as §1

[6] = molecular target: Fuc(a1-2)Gal(b1-4)[Fuc(a1-3)]GlcNAc(b1-3)[Neu5Ac(a2-6)Gal(b1-4)GlcNAc(b1-6)]Gal(b1-4)Glc
Procedure, shortened: as §1

[7] = molecular target: Fuc(a1-2)Gal3S(b1-4)GlcNAc
Procedure, shortened: as §1

[8] = molecular target: Fuc(a1-2)Gal6S(b1-3)GlcNAc
Procedure, shortened: as §1

[9] = molecular target: Fuc(a1-2)Gal6S(b1-3)GlcNAc6S
Procedure, shortened: as §1

[10] = molecular target: Fuc(a1-2)Gal6S(b1-4)Glc
Procedure, shortened: as §1

[11] = molecular target: Fuc(a1-2)Gal6S(b1-4)Glc6S
Procedure, shortened: as §1

[12] = molecular target: Fuc(a1-2)[Gal(a1-3)]Gal
Procedure, shortened: as §1

[13] = molecular target: Fuc(a1-2)[Gal(a1-3)]Gal(b1-3)GalNAc
Procedure, shortened: as §1

[14] = molecular target: Fuc(a1-2)[Gal(a1-3)]Gal(b1-3)GalNAc(b1-3)Gal(a1-4)Gal(b1-4)Glc
Procedure, shortened: as §1

[15] = molecular target: Fuc(a1-2)[Gal(a1-3)]Gal(b1-3)GlcNAc
Procedure, shortened: as §1

[16] = molecular target: Fuc(a1-2)[Gal(a1-3)]Gal(b1-3)GlcNAc(b1-2)Man(a1-3)[Fuc(a1-2)[Gal(a1-3)]Gal(b1-3)GlcNAc(b1-2)Man(a1-6)]Man(b1-4)GlcNAc(b1-4)GlcNAc
Procedure, shortened: as §1

[17] = molecular target: Fuc(a1-2)[Gal(a1-3)]Gal(b1-3)GlcNAc(b1-2)Man(a1-3)[Fuc(a1-2)[Gal(a1-3)]Gal(b1-3)GlcNAc(b1-2)Man(a1-6)]Man(b1-4)GlcNAc(b1-4)[Fuc(a1-6)]GlcNAc
Procedure, shortened: as §1

[18] = molecular target: Fuc(a1-2)[Gal(a1-3)]Gal(b1-3)GlcNAc(b1-3)GalNAc
Procedure, shortened: as §1

[19] = molecular target: Fuc(a1-2)[Gal(a1-3)]Gal(b1-3)GlcNAc(b1-6)GalNAc
Procedure, shortened: as §1

[20] = molecular target: Fuc(a1-2)[Gal(a1-3)]Gal(b1-4)Glc
Procedure, shortened: as §1

[21] = molecular target: Fuc(a1-2)[Gal(a1-3)]Gal(b1-4)GlcNAc
Procedure, shortened: as §1

[22] = molecular target: Fuc(a1-2)[Gal(a1-3)]Gal(b1-4)GlcNAc(b1-2)Man
Procedure, shortened: as §1

[23] = molecular target: Fuc(a1-2)[Gal(a1-3)]Gal(b1-4)GlcNAc(b1-2)Man(a1-3)[Fuc(a1-2)[Gal(a1-3)]Gal(b1-4)GlcNAc(b1-2)Man(a1-6)]Man(b1-4)GlcNAc(b1-4)GlcNAc
Procedure, shortened: as §1

[24] = molecular target: Fuc(a1-2)[Gal(a1-3)]Gal(b1-4)GlcNAc(b1-2)Man(a1-3)[Fuc(a1-2)[Gal(a1-3)]Gal(b1-4)GlcNAc(b1-2)Man(a1-6)]Man(b1-4)GlcNAc(b1-4)[Fuc(a1-6)]GlcNAc
Procedure, shortened: as §1

[25] = molecular target: Fuc(a1-2)[Gal(a1-3)]Gal(b1-4)GlcNAc(b1-3)GalNAc
Procedure, shortened: as §1

[26] = molecular target: Fuc(a1-2)[Gal(a1-3)]Gal(b1-4)GlcNAc(b1-3)[Fuc(a1-2)[Gal(a1-3)]Gal(b1-4)GlcNAc(b1-6)]GalNAc
Procedure, shortened: as §1

[27] = molecular target: Fuc(a1-2)[Gal(a1-3)]Gal(b1-4)GlcNAc(b1-6)GalNAc
Procedure, shortened: as §1

[28] = molecular target: Fuc(a1-2)[Gal(a1-3)]Gal(b1-4)[Fuc(a1-3)]Glc
Procedure, shortened: as §1

[29] = molecular target: Fuc(a1-2)[Gal(a1-3)]Gal(b1-4)[Fuc(a1-3)]GlcNAc
Procedure, shortened: as §1

[30] = molecular target: Fuc(a1-2)[Gal(a1-3)]Gal(b1-4)[Fuc(a1-3)]GlcNAc(b1-3)GalNAc
Procedure, shortened: as §1

[31] = molecular target: Fuc(a1-2)[Gal(a1-4)]Gal(b1-4)GlcNAc
Procedure, shortened: as §1

[32] = molecular target: Fuc(a1-2)[GalNAc(a1-3)]Gal
Procedure, shortened: as §1

[33] = molecular target: Fuc(a1-2)[GalNAc(a1-3)]Gal(b1-3)GalNAc(a1-3)[Fuc(a1-2)]Gal(b1-4)GlcNAc
Procedure, shortened: as §1

[34] = molecular target: Fuc(a1-2)[GalNAc(a1-3)]Gal(b1-3)GalNAc(b1-3)Gal(a1-4)Gal(b1-4)Glc
Procedure, shortened: as §1

[35] = molecular target: Fuc(a1-2)[GalNAc(a1-3)]Gal(b1-3)GlcNAc
Procedure, shortened: as §1

[36] = molecular target: Fuc(a1-2)[GalNAc(a1-3)]Gal(b1-3)GlcNAc(b1-2)Man(a1-3)[Fuc(a1-2)[GalNAc(a1-3)]Gal(b1-3)GlcNAc(b1-2)Man(a1-6)]Man(b1-4)GlcNAc(b1-4)GlcNAc
Procedure, shortened: as §1

[37] = molecular target: Fuc(a1-2)[GalNAc(a1-3)]Gal(b1-3)GlcNAc(b1-2)Man(a1-3)[Fuc(a1-2)[GalNAc(a1-3)]Gal(b1-3)GlcNAc(b1-2)Man(a1-6)]Man(b1-4)GlcNAc(b1-4)[Fuc(a1-6)]GlcNAc
Procedure, shortened: as §1

[38] = molecular target: Fuc(a1-2)[GalNAc(a1-3)]Gal(b1-3)GlcNAc(b1-3)GalNAc
Procedure, shortened: as §1

B1: Nc3LysM (protein)
chain: QFTVPPDTTAEPNTIKTCTWWHVAGSGDSCTSIASTYGITSEQFARWDMETTDSPKNPSVATACKLTVGNSYCIENNFGQDDPPTPSISSSTLIGTATTSTTASTTTGNGISTPTPIQEGMETATTTTSSGNGITTPTPTQAGMETVGNCDRFHLVKSGDQCGTIASTYGITLANFYSWNPAVGTSCQSLWLDTYVCVRTIGFVPPKTTTTTTKKPTSTTSAGGVATPTPTQPGMETVSGCKKFHKGRGNVSTVASGDQCGTIATRYGISLANFYSWNPAVGSSCQTLWLDYYVCVGR
[1]
  glycan array binding signal (z-score): 0.018
[2]
  glycan array binding signal (z-score): -0.008
[3]
  glycan array binding signal (z-score): 0.045
[4]
  glycan array binding signal (z-score): 0.172
[5]
  glycan array binding signal (z-score): -0.251
[6]
  glycan array binding signal (z-score): -0.078
[7]
  glycan array binding signal (z-score): 0.052
[8]
  glycan array binding signal (z-score): -0.054
[9]
  glycan array binding signal (z-score): -0.032
[10]
  glycan array binding signal (z-score): -0.105
[11]
  glycan array binding signal (z-score): -0.049
[12]
  glycan array binding signal (z-score): -0.097
[13]
  glycan array binding signal (z-score): -0.136
[14]
  glycan array binding signal (z-score): -0.299
[15]
  glycan array binding signal (z-score): -0.128
[16]
  glycan array binding signal (z-score): -0.121
[17]
  glycan array binding signal (z-score): -0.142
[18]
  glycan array binding signal (z-score): -0.207
[19]
  glycan array binding signal (z-score): 0.094
[20]
  glycan array binding signal (z-score): -0.306
[21]
  glycan array binding signal (z-score): -0.133
[22]
  glycan array binding signal (z-score): -0.232
[23]
  glycan array binding signal (z-score): -0.096
[24]
  glycan array binding signal (z-score): -0.173
[25]
  glycan array binding signal (z-score): -0.13
[26]
  glycan array binding signal (z-score): 0.055
[27]
  glycan array binding signal (z-score): 0.042
[28]
  glycan array binding signal (z-score): 0.064
[29]
  glycan array binding signal (z-score): -0.157
[30]
  glycan array binding signal (z-score): -0.263
[31]
  glycan array binding signal (z-score): -0.013
[32]
  glycan array binding signal (z-score): -0.143
[33]
  glycan array binding signal (z-score): -0.106
[34]
  glycan array binding signal (z-score): -0.291
[35]
  glycan array binding signal (z-score): -0.047
[36]
  glycan array binding signal (z-score): -0.071
[37]
  glycan array binding signal (z-score): -0.078
[38]
  glycan array binding signal (z-score): 0.023
